Assay results published in PubChem BioAssay AID1345083 (National Center for Advancing Translational Sciences (NCATS), 2018).
In all, about 94,000 compounds went through this assay and about 6,200 (6.6%) were called active. Inconclusive means that the source gave no clear call. Such entries were picked first, then a sample of the others. Calls come from the whole dose curve; as a rule, active = well fitted inhibition curve with a large enough effect; inconclusive = small, poorly fitted or top-dose-only effect; inactive = flat fitted curve, though single readings scatter. Potencies of inconclusive entries are doubtful fits and often do not repeat.

test: Cytotoxic Profiling in HEK 293 Cell Line of Diverse Libraries Using Quantitative High-Throughput Screening; settings: HEK 293 viability, ATP luminescence (CellTiter-Glo), 48-72 h; activity change, negative = cytotoxicity: at 115 µM (top of the series) unless noted; series mostly up to 115 µM; note: nearly all actives have a fitted effect of over 60% in size
Summary of the method: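 HEK 293 cells seeded at 250 cells/well were exposed to compound for 48 or 72 hr at 37 degree Celsius. Viability taken as ATP content by CellTiter-Glo luminescence.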
% is set by controls: 0 for no effect and ±100 for the full control effect; potency is the fitted concentration of half-maximal effect; tags give direction and shape of the fitted curve.

| SMILES | Potency | activity change, negative = cytotoxicity | outcome |
| --- | --- | --- | --- |
| CC(C)c1cccc(NC(=O)c2ccc3c(c2)N(C)C2CCCCN2C3=O)c1 (configuration not stated) | active: 28.2 µM | – | – |
| CCOc1cccc2c1OC[C@@H]1CN(CCC#N)C(=O)CCN(C(=O)COc3ccccc3)[C@H]21 | – | inactive: -24.2% | – |
| Cc1ccc(-c2cccc(CN3CCCC(NC(=O)c4c(C)noc4C)C3)c2)cc1Cl (configuration not stated) | active: 22.4 µM | – | – |
| CNC(=O)c1ccc(CNc2cc(C3CC(O)C3)nc(N)n2)o1 (configuration not stated) | – | – | inactive |
| NCCN1C(=O)CO[C@H](c2ccc(NS(=O)(=O)c3ccccc3)cc2)[C@H]1CO | – | inactive: -18.2% [at 172 µM] | – |
| CNC(=O)N1C[C@@H](CN(C)C)[C@H](NC(=O)c2cccnc2)C1 | – | – | inactive |
| COC(=O)CNC(=O)C1CCN(C(=O)c2ccc(-c3cccc(OC)c3)cc2)CC1 | inconclusive: 89.1 µM [inhibitor, single point] | – | – |
| COCc1cn([C@H]2CO[C@H]3[C@@H]2OC[C@@H]3NC(=O)Nc2cccc(C#N)c2)nn1 | inconclusive: 100 µM [inhibitor, partial curve] | – | – |
| CC(=O)Nc1cc(-c2cccnc2)nn1-c1ccccc1 | – | inactive: -0.932% [at 172 µM] | – |
| O=C1COc2ccc(-c3ccc4c(c3)OCO4)nc2CN1Cc1ccc(F)cc1 | active: 56.2 µM | – | – |
| Cc1ccc(NC(=O)N2CCC(CCNC(=O)c3ccc(F)cc3)CC2)cc1F | inconclusive: 79.4 µM [inhibitor, single point] | – | – |
| Cc1ccc(C(=O)NC2CCN(c3cc(C(F)(F)F)nc(C)n3)CC2)cc1 | inconclusive: 89.1 µM [inhibitor, partial curve, poor fit] | – | – |
| CC(C)CCN1CCC(N2CCN(S(=O)(=O)Cc3ccc(F)cc3Cl)CC2)C1=O (configuration not stated) | inconclusive: 44.7 µM [inhibitor, partial curve] | – | – |
| COc1ccc(CNC(=O)Cn2c(-c3ccc(F)cc3)nc(C)cc2=O)cc1OC | – | inactive: 12.6% | – |
| CCCN(CC1CCOC1)C(=O)Nc1cc(Cl)ccc1OC (configuration not stated) | inconclusive: 39.8 µM [inhibitor, partial curve, poor fit] | – | – |
| Cc1nn(C)cc1C(=O)N1CCC2(CC1)CN(c1ncccn1)CC2CO (configuration not stated) | – | inactive: -6.63% | – |
| CCn1ccc(C(=O)NCCc2ncc(C)n2C2CC2)n1 | – | inactive: -5.81% | – |
| Cn1cc(-c2cnc3[nH]cc(CC(=O)NCc4cccc(F)c4)c3c2)cn1 | inconclusive: 112 µM [inhibitor, partial curve, poor fit] | – | – |
| FC(F)(F)c1ccc2c(c1)nc1n2[C@@H](CNCc2ccccc2)COC1 | inconclusive: 100 µM [inhibitor, partial curve] | – | – |
| CCCNC(=O)N1CCCN(Cc2ccc3c(c2)OCO3)c2ccccc21 | inconclusive: 50.1 µM [inhibitor, partial curve, poor fit] | – | – |
| c1cncc(CN2CCc3c(sc4ncnc(N5CCCC5)c34)C2)c1 | inconclusive: 89.1 µM [inhibitor, single point] | – | – |

| SMILES | Potency | activity change, negative = cytotoxicity | outcome |
| --- | --- | --- | --- |
| COC1C(=O)N(c2cccc(F)c2)C12CCN(S(=O)(=O)Cc1ccccc1)CC2 (configuration not stated) | inconclusive: 79.4 µM [inhibitor, partial curve, poor fit] | – | – |
| Cc1ccc(C)c(S(=O)(=O)N2CCN(C3CCN(Cc4cccnc4)C3=O)CC2)c1 (configuration not stated) | inconclusive: 50.1 µM [inhibitor, partial curve, poor fit] | – | – |
| Cc1cc(C(=O)N[C@H](C)c2onc(C)c2C(=O)O)c(C)o1 | – | – | inactive [at 172 µM] |
| Cc1cccc(C(=O)N2CCCC(Cc3ncc(C)n3Cc3ccccc3)C2)c1 (configuration not stated) | inconclusive: 50.1 µM [inhibitor, partial curve, poor fit] | – | – |
| O=C(NCC1CCOCC1)C1=NO[C@@H]2CN(CCc3ccccc3)C[C@H]12 | inconclusive: 126 µM [inhibitor, single point] | – | – |
| CC1=C[C@@H](CNC(=O)COc2ccccc2)[C@H](C(C)C)C[C@H]1CC(=O)NCCN(C)C | inconclusive: 112 µM [inhibitor, single point] | – | – |
| O=C(NC1CCCCC1)N1CCCC1c1noc(COc2ccc(F)cc2)n1 (configuration not stated) | inconclusive: 50.1 µM [inhibitor, partial curve, poor fit] | – | – |
| Cc1nc2c(c(-c3ccc(O)cc3)n1)CN(Cc1ccc(F)cc1)CCC2 | inconclusive: 56.2 µM [inhibitor, partial curve, poor fit] | – | – |
| COc1ccc(S(=O)(=O)N2C[C@@H]3C[C@H](C2)c2c(NC(=O)c4ccccc4)ccc(=O)n2C3)cc1 | inconclusive: 100 µM [inhibitor, single point] | – | – |
| COc1cc(NC(=O)N[C@H]2CO[C@H]3[C@@H]2OC[C@@H]3Nc2nccc(-c3ccc(-c4ccccc4)cc3)n2)cc(OC)c1 | inconclusive: 79.4 µM [inhibitor, partial curve, poor fit] | – | – |
| CC(C)[C@@H]1C[C@@H]2C[C@@H](NCc3ccccc3)C[C@]2(c2ccccc2)CO1 | active: 79.4 µM | – | – |
| O=C1CCC2(CCCO2)CCN1Cc1ccc(C(F)(F)F)c(F)c1 (configuration not stated) | inconclusive: 12.6 µM [inhibitor, full curve, poor fit] | – | – |
| CN(C)c1ccc(CC(=O)N2CCn3nc(Cc4ccccc4)cc3C2)cc1 | inconclusive: 79.4 µM [inhibitor, partial curve] | – | – |
| CCn1ncc(CN2CC[C@H]3C(=O)NCCCCCCN(Cc4ccncc4)[C@@H]3C2)c1C | – | – | inactive |
| CS(=O)(=O)N1CCc2ccc(C(=O)Nc3ccc(F)cc3)cc21 | inconclusive: 39.8 µM [inhibitor, full curve] | – | – |
| N#Cc1cccc(-c2cn3cc(C(=O)NCc4cccc(Cl)c4)nc3s2)c1 | inconclusive: 79.4 µM [inhibitor, single point] | – | – |
| Cc1ccc(OCCC2CCN(C(=O)CCc3ccccc3)C2)cc1 (configuration not stated) | inconclusive: 56.2 µM [inhibitor, partial curve, poor fit] | – | – |
| CCOC(=O)C1(Cc2ccccc2C(F)(F)F)CCNCC1 | inconclusive: 79.4 µM [inhibitor, partial curve, poor fit] | – | – |
| COc1cccc(-c2cn3cc(C(=O)NCc4cccnc4)nc3s2)c1 | active: 31.6 µM | – | – |
| NCc1ccc(-c2cncnc2)cc1 | – | – | inactive [at 230 µM] |
| COc1cccc(N2CC(C(=O)NCc3ccc(F)cc3)NC2=O)c1 (configuration not stated) | inconclusive: 44.7 µM [inhibitor, partial curve, poor fit] | – | – |
